The record followed here is PMC4336329 (PLoS ONE, 2015).

The structures appear in SMILES notation. Screen size: about 310,000 compounds; about 14,000 (4.5%) showed an effect of 50% or more. The effect is printed as a negative number. Some of the results follow.
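Note: peak tail current of the secondary pulse compared with the same well before compound.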

Sequence of human ether-à-go-go-related gene (hERG) potassium channel (Q12809 whole entry, looked up): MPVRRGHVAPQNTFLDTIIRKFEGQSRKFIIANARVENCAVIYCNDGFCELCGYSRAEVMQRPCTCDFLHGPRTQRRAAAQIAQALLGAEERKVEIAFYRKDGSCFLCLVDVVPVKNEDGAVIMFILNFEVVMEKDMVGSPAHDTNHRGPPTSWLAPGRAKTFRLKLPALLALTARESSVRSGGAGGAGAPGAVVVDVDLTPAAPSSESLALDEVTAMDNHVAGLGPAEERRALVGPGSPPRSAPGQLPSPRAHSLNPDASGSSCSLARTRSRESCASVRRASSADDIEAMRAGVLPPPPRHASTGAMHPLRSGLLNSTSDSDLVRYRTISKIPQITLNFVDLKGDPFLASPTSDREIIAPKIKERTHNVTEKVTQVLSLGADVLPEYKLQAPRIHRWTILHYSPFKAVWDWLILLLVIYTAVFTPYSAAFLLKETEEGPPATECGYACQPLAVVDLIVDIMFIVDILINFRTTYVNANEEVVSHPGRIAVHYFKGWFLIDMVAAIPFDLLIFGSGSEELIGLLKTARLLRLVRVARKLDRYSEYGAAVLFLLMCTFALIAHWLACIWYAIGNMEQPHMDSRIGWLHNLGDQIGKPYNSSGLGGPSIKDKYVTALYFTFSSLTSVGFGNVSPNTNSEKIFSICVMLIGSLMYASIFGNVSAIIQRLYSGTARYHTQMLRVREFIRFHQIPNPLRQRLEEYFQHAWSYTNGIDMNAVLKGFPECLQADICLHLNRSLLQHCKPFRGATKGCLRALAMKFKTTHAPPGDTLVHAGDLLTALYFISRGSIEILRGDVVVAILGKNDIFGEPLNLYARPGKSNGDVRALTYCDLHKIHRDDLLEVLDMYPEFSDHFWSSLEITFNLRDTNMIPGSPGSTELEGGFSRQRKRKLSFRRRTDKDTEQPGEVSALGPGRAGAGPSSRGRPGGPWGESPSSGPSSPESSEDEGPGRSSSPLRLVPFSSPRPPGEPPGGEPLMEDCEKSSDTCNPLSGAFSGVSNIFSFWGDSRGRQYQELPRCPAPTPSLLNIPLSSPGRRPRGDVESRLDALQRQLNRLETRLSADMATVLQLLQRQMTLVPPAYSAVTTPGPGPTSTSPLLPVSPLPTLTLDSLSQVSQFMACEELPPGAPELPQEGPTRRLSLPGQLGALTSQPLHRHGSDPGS

The assay concerns the target human ether-à-go-go-related gene (hERG) potassium channel (human, UniProt Q12809). In words: primary screen, population patch clamp on CHO cells stably expressing hERG.
In the case of `COc1ccc(CNCCc2ccc([N+](=O)[O-])cc2)c(OC)c1OC.O=C(O)C(=O)O`, the “hERG current change (%, negative = inhibition) at 10uM” value is on record as -68.9%.

For the compound `CC(=O)Nc1ccc(N/C=C/C(=O)c2ccc(C)o2)cc1`, the “hERG current change (%, negative = inhibition) at 10uM” value was -3.49%.

As to `CC(C)(C)c1ccc(NC(=O)c2cc[n+]([O-])cc2)cc1`, the “hERG current change (%, negative = inhibition) at 10uM” value amounted to 11.6%.

As to `COc1ccccc1/C=N/NC(=O)CCn1cnc2ccccc21`, the “hERG current change (%, negative = inhibition) at 10uM” value was found to be 2.84%.

As for `Cc1ccc(NC(=O)C(C)SCc2nc3sc4c(c3c(=O)[nH]2)CCCC4)nc1` (centres unmarked), the “hERG current change (%, negative = inhibition) at 10uM” value is recorded as -25.3%.

For `N#CCSc1nc2ccc(N3CCOCC3)cc2c(=O)n1CCc1ccccc1`, the “hERG current change (%, negative = inhibition) at 10uM” value is given as -5.02%.

As for `C=CCOc1ccc(/C(CC)=N/O)cc1OC`, the “hERG current change (%, negative = inhibition) at 10uM” value is 16.9%.

As to `Cc1cccc(-n2c(SCC(=O)Nc3nnc(C)s3)nnc2-c2ccoc2C)c1`, the “hERG current change (%, negative = inhibition) at 10uM” value is -63.9%.

Regarding `O=C(NCc1ccco1)/C(=C\c1cccc([N+](=O)[O-])c1)NC(=O)c1ccco1`, the “hERG current change (%, negative = inhibition) at 10uM” value was -64.7%.

As for `COc1c(O)cc2c(c1O)[C@@H]1O[C@H](CO)[C@@H](O)[C@H](O)[C@H]1OC2=O`, the “hERG current change (%, negative = inhibition) at 10uM” value was found to be 19%.

As to `C=CCn1c(COc2ccc(Cl)cc2)nnc1SCC(=O)N1CC(=O)Nc2ccccc21`, the “hERG current change (%, negative = inhibition) at 10uM” value is recorded as -63.5%.

Regarding `CC1CCC(N2CC(=O)N(Cc3ccc4c(c3)OCO4)C(c3ccc(F)cc3)C2=O)CC1` (centres unmarked), the “hERG current change (%, negative = inhibition) at 10uM” value is -41.5%.

With `COc1ccc(N2CC(C(=O)Nc3nnc(SCC(=O)NC(C)(C)C)s3)CC2=O)cc1` (centres unmarked), the “hERG current change (%, negative = inhibition) at 10uM” value was 21.4%.

As to `COc1ccc(/C(N)=N/OC(=O)C2CCCCC2)cc1OC`, the “hERG current change (%, negative = inhibition) at 10uM” value turned out to be 6.29%.

Regarding `COc1ccc(C2CCCN2C(=S)Nc2ccc(C)cc2C)cc1OC` (centres unmarked), the “hERG current change (%, negative = inhibition) at 10uM” value is -12.1%.

For `N#CC1=C(SCC(N)=O)NC2=C(C(=O)c3ccccc32)C1c1ccc(Cl)cc1` (centres unmarked), the “hERG current change (%, negative = inhibition) at 10uM” value was -1.6%.

Consider `CCNS(=O)(=O)c1ccc(CCC(=O)N2CCN(C(=O)OCC)CC2)cc1`, for which the “hERG current change (%, negative = inhibition) at 10uM” value worked out at 13.6%.

With `Cc1c(CCC(=O)O)c(=O)oc2cc3occ(-c4ccc(Cl)cc4)c3cc12`, the “hERG current change (%, negative = inhibition) at 10uM” value is on record as 21.7%.

Take `Cc1ccc2nc(-c3ccncc3)cc(C(=O)Nc3ccc(OC(F)F)cc3)c2c1`: the “hERG current change (%, negative = inhibition) at 10uM” value was -4.72%.

Consider `Cc1cc(C(F)(F)F)n2nc(-c3cnn(C)c3C(F)(F)F)c(Br)c2n1`, for which the “hERG current change (%, negative = inhibition) at 10uM” value is reported as 16.9%.

Consider `O=C(NC1CCCCC1)C(c1cccs1)N(Cc1cccs1)C(=O)c1cccs1` (centres unmarked), for which the “hERG current change (%, negative = inhibition) at 10uM” value was -12.2%.

As for `CC(=O)Nc1nc(-c2ccc(Br)s2)cs1`, the “hERG current change (%, negative = inhibition) at 10uM” value came to 11.8%.

For the compound `O=C(c1ccc(Cl)cc1)c1c[nH]c(C(=O)NNc2cccc(Cl)n2)c1`, the “hERG current change (%, negative = inhibition) at 10uM” value worked out at 17.3%.

`CCN(CC)S(=O)(=O)c1ccc(/C=C/C(=O)OCC(=O)Nc2ccc(S(N)(=O)=O)cc2)cc1`: the “hERG current change (%, negative = inhibition) at 10uM” value is -2.24%.

Turning to `Cn1cnnc1SCC(=O)c1cc2ccccc2oc1=O`, the “hERG current change (%, negative = inhibition) at 10uM” value was determined as 1.13%.

For `Cc1c(Cl)cccc1NC(=O)COC(=O)C12CC3CC(CC(O)(C3)C1)C2`, the “hERG current change (%, negative = inhibition) at 10uM” value was found to be 4.62%.

For `CCOC(=O)Cc1cnc(NC(=O)NC(C(=O)OCC)(c2ccccc2)C(F)(F)F)s1` (centres unmarked), the “hERG current change (%, negative = inhibition) at 10uM” value is on record as -7.81%.

For `CC(C)CCNC(=O)c1cn(C)c2ccc(S(=O)(=O)N3CCCC3)cc2c1=O`, the “hERG current change (%, negative = inhibition) at 10uM” value is given as 7.94%.

Take `Fc1cccc(/C=N/Nc2cc(N3CCOCC3)ncn2)c1`: the “hERG current change (%, negative = inhibition) at 10uM” value came to 14.2%.

`COc1ccccc1-c1cnn2c(N3CCOCC3)cc(C)nc12`: the “hERG current change (%, negative = inhibition) at 10uM” value is given as 23.9%.

On to `O=C(N/N=C/c1ccc(OCc2ccccc2)cc1)c1cccs1`, for which the “hERG current change (%, negative = inhibition) at 10uM” value was found to be 28.5%.

Consider `COc1ccc(Cn2nnnc2CN(CCCN2CCOCC2)Cc2cc3cc(OC)ccc3[nH]c2=O)cc1`, for which the “hERG current change (%, negative = inhibition) at 10uM” value is given as -42.7%.

Regarding `CCN1C(=O)N[C@@H](c2cccc(C(F)(F)F)c2)C(C(C)=O)=C1C`, the “hERG current change (%, negative = inhibition) at 10uM” value is -2.32%.

Consider `COc1ccc(NC(=O)C2CCCN2S(=O)(=O)c2ccc3c(c2)CCC(=O)N3)cc1Cl` (centres unmarked), for which the “hERG current change (%, negative = inhibition) at 10uM” value is given as -27.8%.

With `Cc1cc(C)cc(OCc2nnc(SCC(=O)N3CCCCC3)o2)c1`, the “hERG current change (%, negative = inhibition) at 10uM” value was -1.74%.

As to `O=C(C(=O)N1CCc2ccccc2C1)c1cn(CC(=O)N2CCOCC2)c2ccccc12`, the “hERG current change (%, negative = inhibition) at 10uM” value is recorded as -19.1%.

For `COc1ccc(Cl)cc1C(=O)Nc1cccc2ncccc12`, the “hERG current change (%, negative = inhibition) at 10uM” value is recorded as -6.04%.

Regarding `O=C(O)CC1(O)C(=O)N(Cc2ccccc2)c2ccccc21` (centres unmarked), the “hERG current change (%, negative = inhibition) at 10uM” value is on record as 15%.

Consider `Cc1occc1C(=O)NNC(=O)C1CCCC1`, for which the “hERG current change (%, negative = inhibition) at 10uM” value is -5.08%.

On to `C[C@H]1NC(=O)[C@@]2(C)[C@@H](c3ccccc3)[C@H]3COc4ccccc4[C@@H]3N2C1=O`, for which the “hERG current change (%, negative = inhibition) at 10uM” value is on record as -10.1%.

Turning to `Cc1cc(C)cc(OCC(=O)OCC(=O)N2CCc3ccccc32)c1`, the “hERG current change (%, negative = inhibition) at 10uM” value was found to be 14.5%.

In the case of `Cc1cccc(-n2c(SCC(=O)c3c(N)n(C4CC4)c(=O)[nH]c3=O)nnc2N2CCOCC2)c1`, the “hERG current change (%, negative = inhibition) at 10uM” value is on record as 0.839%.

`CCN(c1cccc(C)c1)S(=O)(=O)c1ccc(-c2coc(C)n2)cc1`: the “hERG current change (%, negative = inhibition) at 10uM” value worked out at 4.01%.

Regarding `O=C(O)C(=O)O.c1ccc(Cn2c(SCCN3CCOCC3)nnc2-c2cccnc2)cc1`, the “hERG current change (%, negative = inhibition) at 10uM” value is on record as -0.113%.

As for `O=C(OCC(=O)N1CCN(c2ccccc2)CC1)c1cnc(Cl)c(Cl)c1`, the “hERG current change (%, negative = inhibition) at 10uM” value was -38%.

With `Cc1cc(=O)c(C(=O)O)cn1-c1ccc(C(C)C)cc1`, the “hERG current change (%, negative = inhibition) at 10uM” value is reported as -20.4%.

Turning to `COc1ccc(S(=O)(=O)NC(Cc2ccccc2)C(=O)O)cc1` (centres unmarked), the “hERG current change (%, negative = inhibition) at 10uM” value was found to be 10.4%.

Turning to `O=C(N=c1ccn(-c2nc3ccccc3nc2NS(=O)(=O)c2ccc(Cl)cc2)cc1)c1ccccc1Cl`, the “hERG current change (%, negative = inhibition) at 10uM” value is given as 0.052%.

On to `CC(OC(=O)CNS(=O)(=O)c1ccc2ccccc2c1)C(=O)N(C)c1ccccc1` (centres unmarked), for which the “hERG current change (%, negative = inhibition) at 10uM” value is recorded as -15.6%.

As for `CCN(CC)CCn1c2ccccc2c2cnc(N=CN(C)C)c(C#N)c21`, the “hERG current change (%, negative = inhibition) at 10uM” value is given as -31.8%.

As to `COCCN1C(=O)N[C@@H](c2ccco2)C(C(=O)OC)=C1C`, the “hERG current change (%, negative = inhibition) at 10uM” value is recorded as -8.51%.

For `CCOC(=O)C(Cc1ccccc1)(NC(C)=O)C(=O)OCC`, the “hERG current change (%, negative = inhibition) at 10uM” value was 7.61%.

Consider `O=C(CNCCN1CCOCC1)Nc1ccccc1Sc1ccccc1.O=C(O)C(=O)O`, for which the “hERG current change (%, negative = inhibition) at 10uM” value was -29.7%.
